The other results are listed elsewhere or left out. At the low end of the ranking the order means little.
What follows are sequences tested against T1, GST-Rok (full length) (UniProt O34857) (assay: protein binding microarray). Settings: Rok is a gene silencer of Bacillus subtilis; high values mean tight binding; most listed sequences are background and not binding sites; double strand, one strand shown.
T1 sequence: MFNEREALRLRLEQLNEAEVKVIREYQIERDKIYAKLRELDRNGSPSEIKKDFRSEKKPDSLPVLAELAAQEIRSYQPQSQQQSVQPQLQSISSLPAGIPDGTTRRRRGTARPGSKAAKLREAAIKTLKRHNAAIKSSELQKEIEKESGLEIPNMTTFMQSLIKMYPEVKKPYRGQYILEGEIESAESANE
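Note: rank score from −0.5 (least bound) to 0.5 (best bound).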

Sequence	binding signal [E-score]
AAGTCGTC	0.0947
AGCTAGAC	-0.0113
TAGTTGAA	0.274
AACAACTA	0.292
GAACTTAA	0.0294
AGGGCCTC	-0.24
GGTACCTA	0.273
TTATACAA	0.294
AAGAGTGG	-0.136
GGTTGTAA	0.259
AAAAAGTA	0.109
GGTACGGA	-0.0669
AAAAAATA	0.314
CATGCCCC	-0.242
ACACCTCA	0.0702
GTGCAGCA	0.00937
ACTCGGAA	-0.0267
AAAGTCAT	0.0668
CATTCTTC	0.0507
AAACCTCA	-0.0427
GGATAGCA	0.0206
AAAAGAGC	-0.143
CAGCAACG	-0.0411
AGCTAGCG	0.0925
CGAACCAC	-0.0362

Sequence	binding signal [E-score]
ATGCGCTA	0.223
ACACCATC	0.0312
ATCGATAA	0.332
CTGAAATC	0.0357
ATGATAGG	0.0932
ACAGGCTA	0.0256
CTATCGCA	0.0969
ACGTGACT	0.0761
ATCCGCCC	-0.206
GCGTTATA	0.0986
ACAATAGC	0.216
CTACGATC	0.218
ATATAGGC	-0.0417
ACTTTAAC	0.187
TAACCTCA	-0.0607
CGTTTTCC	0.186
CCAAAGTA	0.125
ACATGAGC	0.0934
CCTGCTCC	-0.398
AGTCGGAC	-0.171
ATTACCAC	0.215
ATCCCCTA	-0.186
CAGGCAGG	-0.265
AGACCCGA	-0.29
GACTAGCA	0.0279

Sequence	binding signal [E-score]
AGACCACG	-0.186
ATCGTAGG	0.0847
GACAGCGA	-0.145
GACCTTGC	-0.0802
AGAATGAC	0.0719
GGAAGTAA	0.139
AGTTGCCA	0.0433
AGTCGGAA	-0.199
AGAACGTG	0.00451
GCGGTGCA	-0.113
GCATCTCC	-0.0641
AAGGAGGC	-0.222
AGGTTATG	-0.0904
AGTAGTTG	0.388
AACTTCCC	-0.222
ACCACAAG	-0.065
CGCTAAAA	0.0848
AGTCCGCA	0.101
ATAAGATC	0.228
AACTTTGT	-0.0143
ACCAATTA	0.0426
CTATATAC	0.341
ATCCCTTA	-0.0767
CTCGCCGA	-0.251
CACGACCC	-0.198

Sequence	binding signal [E-score]
ACTGGGTG	-0.0702
GGCTGGAC	-0.174
CATACTCG	-0.0403
CACATGAA	0.161
GCGCTACA	0.145
CATGAATG	0.161
CAGCCCAG	-0.285
AAACATAC	0.26
GAAAAGCC	-0.0461
GGACAAAC	0.0397
AACTCCTA	0.0713
AGCAGAGC	-0.0973
CGAGATCA	-0.0469
AATTCGAA	0.331
GTGGGTGA	0.0102
CGAACACA	0.0244
GAGCTCGC	-0.257
AACACCCC	-0.208
ATACTAAT	0.378
ACATAGCA	0.0842
GCCGAACC	-0.135
ATCCCCCG	-0.302
CGATAGCG	-0.202
CCCGGGGA	-0.378
AAGCTAGC	0.137

Sequence	binding signal [E-score]
ATCACCTC	0.0286
GTTTAAGA	-0.0168
ATTGTCCA	-0.000301
CTTCGGTA	0.14
GCTCTCCA	-0.332
ACCTCCAG	-0.192
ATGCCAGG	-0.134
ACCGGGGC	-0.354
ATCACGGA	-0.0814
CGACCAAG	0.113
CAAAATTG	0.274
AAATCCGA	-0.0125
GCTGCAAC	-0.035
AGATAACT	0.126
AGTCAATC	0.0284
GTAGCAAA	0.199
AGTGCCTA	-0.0367
ATGCAATA	0.112
ATTCAATG	0.0514
AAATAGAC	0.0132
ATTAGGGA	-0.0389
TATCGCAA	0.0914
TCTATCCA	-0.0569
AACAGGTT	-0.0373
TAAAAGTA	0.256

Sequence	binding signal [E-score]
AAGAGGCT	-0.304
CAAAGGGG	-0.293
ATCACATC	0.105
TCTTAACA	0.0349
CGCTCTAA	0.0649
AAGCCAAA	-0.0526
AGATTGCT	-0.0426
CTTGGATA	-0.0642
GTTGAACA	-0.0917
AACTCGCT	-0.0547
GTATCCAC	0.0386
CCTAGCGA	-0.111
ACTTCCAG	0.0918
ATATAGAC	0.0949
AGTAATAT	0.402
ACACTAGT	0.32
CCACGAGG	-0.297
ACACCCAC	-0.00415
GGGCCTTA	-0.25
TATTCTAA	0.187
CAGCTCAG	-0.202
ACCCTAGT	0.155
GGGCACAC	-0.2
GCCGTCTA	-0.0749
CGGTATAG	0.119

Sequence	binding signal [E-score]
CAGTAAGG	-0.0572
CATGCAGG	0.0103
ACCCGCCG	-0.225
GAGGATCA	-0.196
CGCGATTA	0.109
ATACCGAA	0.097
ACGTATCC	0.0655
AAGTGAGG	-0.195
GGGGCCTA	-0.383
CGTCCCCC	-0.264
GGTGCTCA	-0.159
ATAATACG	0.349
CATGCTTC	-0.0582
AAGTTTTA	0.244
GCCTTGTA	-0.0817
ATATTTTA	0.412
ACCGACCC	-0.317
GGCCAAAC	-0.0224
ACTACACC	0.231
AACAGCCG	-0.153
CCAGAACG	-0.0311
AAAATCAT	0.215
GGACCTTA	-0.175
AAAACGGC	-0.0778
AGCTTGTG	-0.139

Sequence	binding signal [E-score]
CTATTGGA	-0.0235
TCGGTAGA	0.231
CAAGATGG	-0.0564
AAAGGATA	0.12
ATCGAGCA	-0.0567
AACAAGGT	0.0919
CGACCTCG	-0.115
CCATGAAG	-0.169
ATCGCAGG	-0.191
CAAAAGTC	-0.12
TCATCCCA	0.0226
CTACTAGA	0.32
ACCAGGCA	-0.311
ACTGTTTA	0.211
CTACATTC	0.176
ACCCTGTC	-0.0851
CTAATTTC	0.162
CTAAACGC	0.0619
ACACGAAG	-0.175
CGGGCAGC	-0.142
AAACAAGT	-0.075
AGCTGCTA	-0.0649
CGCCTAAC	-0.198
AGATCCGG	0.0294
GAGCTAAC	0.0297

Sequence	binding signal [E-score]
CTTTGCGA	-0.257
AAAGGATC	-0.0686
GATGCACC	-0.00513
ACTGGAGG	-0.249
GCGACGTA	0.108
ATAAAAGG	0.0655
GAGGCAAC	-0.218
CGATCGCG	0.0715
CGCCGCGC	-0.194
CGGAGAGC	-0.301
ACATCAGC	0.165
AAAAAATC	-0.0765
CAGATGAG	-0.347
AGGAAACA	0.0224
ACTATTTG	0.254
ACTAGCGC	0.0437
TGACGTCA	0.0521
CCGCAACA	0.143
CATGGGGC	-0.232
CCAATCCC	-0.3
TATCTCCA	0.21
ACGAAGGA	-0.0401
GAATAGGA	0.0882
ATCGCCGG	-0.239
GCCGTAGC	-0.142

Sequence	binding signal [E-score]
AGCTGTAT	0.0771
GTCGTTTA	0.0636
CGTGAAGA	-0.216
ACAAAACG	-0.0168
ACTCCCCT	-0.408
AAAGTATT	0.241
GTATCCTA	0.13
CTCCGCAC	-0.0371
ATTTACCC	0.126
GATGCTGC	-0.165
GTTAATTA	0.203
ACGACACA	-0.00361
CCCCGAGA	-0.305
GCTTCCGA	-0.17
CTGGAAAG	-0.166
TCTTTGCA	0.0291
ACAACAGG	0.0538
AACTTTTC	-0.0564
GACATGAA	0.0513
CGTGCAGA	-0.135
ACAAAGAC	0.25
ACCCGGTG	-0.34
ACTCGGTC	-0.0736
AACGGGGA	-0.206
ACCAGGAC	-0.0352

Sequence	binding signal [E-score]
AGGACCAC	-0.18
CAGGTCCC	-0.278
AGCCACAG	-0.298
GACACTTA	0.00922
CGCGCACA	0.0803
GCCGTGCA	0.033
CTTTGTCA	-0.166
AACTTATG	0.122
CCACAAAG	-0.145
CGAGATGA	-0.131
CACGTGGA	-0.0497
AAACGCTT	-0.0899
AACGGAAG	-0.0939
GCTGAAGC	-0.214
AGAAAAGG	-0.202
ATGCTTCA	-0.0514
ACTCATAC	0.213
GGTAAGAA	0.116
CGAACATA	0.00704
AGTCCTTA	0.0442
GGCTCCCA	-0.297
ATAGTCAT	0.069
GCGTACAC	0.142
CACCTAGG	-0.199
GCTTACCC	-0.171

Sequence	binding signal [E-score]
GGTGGACA	-0.261
TGCCCAAA	-0.0262
ACTGCTGG	-0.164
ACATCTTG	0.0436
ACACGTAG	-0.0632
GAAAGCAC	-0.17
AAATACCT	0.278
CCATTGAA	-0.163
GACCGTAA	0.00868
GGCCCGAC	-0.372
CCCGTCGG	-0.255
AAGACATA	-0.0219
CGGAGCAA	-0.0257
GGAGTAAC	-0.0713
AGTTCCTA	0.128
TCGCCTAA	-0.0105
ATCTGACA	-0.0422
ATTCCCCG	-0.132
CTACGTTA	-0.0876
CGAGTACG	0.00167
CCCCTTGA	-0.262
ATCAAAAT	0.163
AAGCGATC	-0.145
GCCTTACA	0.0304
ATAGTACC	0.304

Sequence	binding signal [E-score]
CCAAGACG	-0.105
ACAACAGA	-0.0483
AAGATTCC	-0.109
ATGCAAAC	-0.019
CACGAGTA	0.00531
ACTATACT	0.26
AATGAGCC	-0.0748
CCTCTACA	0.142
CGTTTAGA	-0.0128
CACCTGGG	-0.276
GCACCAAC	-0.108
AACTACAC	0.335
GTGATGGA	-0.157
GAATTCTA	0.357
ACGTCTAA	-0.0183
CTGAGCTC	-0.252
AACAACAG	-0.0243
GGACATAC	-0.09
ACGCGTTA	0.123
AGCCCCGA	-0.261
CCCTTCAA	-0.213
CTCTCAAG	-0.267
AAACTCAA	0.188
CAGCTAGC	0.0221
CACATACA	0.167

Sequence	binding signal [E-score]
AACCTCCG	-0.155
CAACAAAC	-0.0715
AACTATAT	0.362
TCTCCCAA	-0.224
CTCAGTCA	-0.216
CACCGGAG	-0.156
AAGTTACT	0.144
AAACTCCT	-0.106
ACGCACGC	-0.213
AGTCCATA	0.0254
AAGCGCTT	-0.257
AATGATCT	0.195
CTAGCCTC	-0.0478
AAACACGC	-0.0824
CAAACCGC	-0.22
ACACTTCA	-0.0803
CAATTTCA	0.24
CGCGTTTC	-0.0512
CAACCAAC	0.0714
